Assay results reported in publication PMC5700166.
This is a selection; strong and weak results do not stand in their true shares. The list includes weakly bound sequences.

These sequences were tested against T1, GST-Co-NF-kB (UniProt F1ARL5) (assay: protein-binding microarray (PBM)). Settings: PBM: ~300 nM protein, 6 mM HEPES pH 7.8, 80 mM KCl, 0.5 mM EDTA, 0.5 mM EGTA, 6% glycerol, 35 ng/ul poly-dIdC, 1% milk, 1 h, room temperature; Ap Aiptasia and Nv Nematostella (sea anemones) / Co Capsaspora / Aq Amphimedon (sponge) / Dm Drosophila / Hu human; RHD is the Rel homology domain; high values mean tight binding; most listed sequences are background and not binding sites; double strand, one strand shown.
T1 sequence: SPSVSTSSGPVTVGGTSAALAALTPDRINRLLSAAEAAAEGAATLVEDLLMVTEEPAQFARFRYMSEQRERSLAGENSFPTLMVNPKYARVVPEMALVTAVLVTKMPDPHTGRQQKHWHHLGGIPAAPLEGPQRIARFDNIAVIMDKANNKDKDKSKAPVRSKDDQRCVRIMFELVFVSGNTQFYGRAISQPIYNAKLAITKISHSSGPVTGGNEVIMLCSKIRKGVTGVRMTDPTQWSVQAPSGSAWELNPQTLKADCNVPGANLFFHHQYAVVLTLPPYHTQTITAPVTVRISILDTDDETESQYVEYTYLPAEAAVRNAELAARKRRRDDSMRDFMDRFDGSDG

Q: Which binding signal does the source give for “CCGATTAACATCAAGGGGGGTAATGATGTTAATCGGGTCTTGATTCGCTTGACGCTGCTG” here?
A: 5.42 z-score

Q: “CCGATTAACATCAGAAACCCCCATGATGTTAATCGGGTCTTGATTCGCTTGACGCTGCTG” was tested. Which binding signal did it give?
A: 2.76 z-score

Q: Which binding signal does the source give for “CCGATTAACATCAGAAATTTCCATGATGTTAATCGGGTCTTGATTCGCTTGACGCTGCTG” here?
A: 0.846 z-score

Q: With “CCGATTAACATCAGGGAGGGAAATGATGTTAATCGGGTCTTGATTCGCTTGACGCTGCTG” as the sequence, how does the binding signal read?
A: 3.79 z-score

Q: How did the binding signal turn out when “CCGATTAACATCAGGAGACTCCCTGATGTTAATCGGGTCTTGATTCGCTTGACGCTGCTG” was run?
A: 1.37 z-score

Q: How did the binding signal turn out when “CCGATTAACATCAGGGGAAAACATGATGTTAATCGGGTCTTGATTCGCTTGACGCTGCTG” was run?
A: 8.6 z-score

Q: Which binding signal does the source give for “CCGATTAACATCACATACTCCCCTGATGTTAATCGGGTCTTGATTCGCTTGACGCTGCTG” here?
A: 3.69 z-score

Q: Which binding signal does the source give for “CCGATTAACATCACGGAATTTCCTGATGTTAATCGGGTCTTGATTCGCTTGACGCTGCTG” here?
A: 0.284 z-score

Q: Which binding signal does the source give for “CCGATTAACATCAGGAATTTTACTGATGTTAATCGGGTCTTGATTCGCTTGACGCTGCTG” here?
A: 0.214 z-score

Q: How did the binding signal turn out when “CCGATTAACATCAGGAAACTTCCTGATGTTAATCGGGTCTTGATTCGCTTGACGCTGCTG” was run?
A: -0.296 z-score

Q: For “CCGATTAACATCAAGAAAATTCCTGATGTTAATCGGGTCTTGATTCGCTTGACGCTGCTG”, which binding signal is on record?
A: 0.0868 z-score

Q: With “CCGATTAACATCAGGAAAGGCCCTGATGTTAATCGGGTCTTGATTCGCTTGACGCTGCTG” as the sequence, how does the binding signal read?
A: -0.993 z-score

Q: With “CCGATTAACATCAAAAATTCCACTGATGTTAATCGGGTCTTGATTCGCTTGACGCTGCTG” as the sequence, how does the binding signal read?
A: 0.0478 z-score

Q: “CCGATTAACATCAAAATCTTCCCTGATGTTAATCGGGTCTTGATTCGCTTGACGCTGCTG” was tested. Which binding signal did it give?
A: 4.16 z-score

Q: “CCGATTAACATCAAGGAAAGTACTGATGTTAATCGGGTCTTGATTCGCTTGACGCTGCTG” was tested. Which binding signal did it give?
A: 0.546 z-score

Q: “CCGATTAACATCACAGGAATTCCTGATGTTAATCGGGTCTTGATTCGCTTGACGCTGCTG” was tested. Which binding signal did it give?
A: 0.104 z-score

Q: For “CCGATTAACATCAGGAAAATTCCTGATGTTAATCGGGTCTTGATTCGCTTGACGCTGCTG”, which binding signal is on record?
A: -0.864 z-score

Q: How did the binding signal turn out when “CCGATTAACATCAAAAAAACTCCTGATGTTAATCGGGTCTTGATTCGCTTGACGCTGCTG” was run?
A: -0.205 z-score

Q: Which binding signal does the source give for “CCGATTAACATCAAAAAATTCCTTGATGTTAATCGGGTCTTGATTCGCTTGACGCTGCTG” here?
A: 0.0336 z-score

Q: Which binding signal does the source give for “CCGATTAACATCAAATCATTCCCTGATGTTAATCGGGTCTTGATTCGCTTGACGCTGCTG” here?
A: 3.4 z-score

Q: For “CCGATTAACATCAAAATTTCCGCTGATGTTAATCGGGTCTTGATTCGCTTGACGCTGCTG”, which binding signal is on record?
A: 0.305 z-score

Q: For “CCGATTAACATCACAGGGAATTCTGATGTTAATCGGGTCTTGATTCGCTTGACGCTGCTG”, which binding signal is on record?
A: 3.45 z-score

Q: For “CCGATTAACATCAATGGGTTTCCTGATGTTAATCGGGTCTTGATTCGCTTGACGCTGCTG”, which binding signal is on record?
A: 0.768 z-score

Q: For “CCGATTAACATCACAGGATTTCCTGATGTTAATCGGGTCTTGATTCGCTTGACGCTGCTG”, which binding signal is on record?
A: 0.159 z-score

Q: For “CCGATTAACATCAAAAAGTTTCCTGATGTTAATCGGGTCTTGATTCGCTTGACGCTGCTG”, which binding signal is on record?
A: 0.79 z-score

Q: “CCGATTAACATCAGGACTGCCCCTGATGTTAATCGGGTCTTGATTCGCTTGACGCTGCTG” was tested. Which binding signal did it give?
A: 0.794 z-score

Q: “CCGATTAACATCAAAAGAACCCCTGATGTTAATCGGGTCTTGATTCGCTTGACGCTGCTG” was tested. Which binding signal did it give?
A: 2.76 z-score

Q: How did the binding signal turn out when “CCGATTAACATCAAAAAGTCCCTTGATGTTAATCGGGTCTTGATTCGCTTGACGCTGCTG” was run?
A: 1.63 z-score

Q: “CCGATTAACATCAAGGAAGTTCCTGATGTTAATCGGGTCTTGATTCGCTTGACGCTGCTG” was tested. Which binding signal did it give?
A: -0.686 z-score

Q: With “CCGATTAACATCACCCCCGCCCCTGATGTTAATCGGGTCTTGATTCGCTTGACGCTGCTG” as the sequence, how does the binding signal read?
A: 6.71 z-score

Q: “CCGATTAACATCAAAATTTTCCATGATGTTAATCGGGTCTTGATTCGCTTGACGCTGCTG” was tested. Which binding signal did it give?
A: 0.57 z-score

Q: “CCGATTAACATCAAGGGGAGTCCTGATGTTAATCGGGTCTTGATTCGCTTGACGCTGCTG” was tested. Which binding signal did it give?
A: 2.5 z-score

Q: Which binding signal does the source give for “CCGATTAACATCAGGGGGTCCACTGATGTTAATCGGGTCTTGATTCGCTTGACGCTGCTG” here?
A: 1.99 z-score

Q: Which binding signal does the source give for “CCGATTAACATCAAAAGCCCCCCTGATGTTAATCGGGTCTTGATTCGCTTGACGCTGCTG” here?
A: 4.6 z-score

Q: With “CCGATTAACATCAGGAATTCCAATGATGTTAATCGGGTCTTGATTCGCTTGACGCTGCTG” as the sequence, how does the binding signal read?
A: 0.239 z-score

Q: Which binding signal does the source give for “CCGATTAACATCACGGAATTCCGTGATGTTAATCGGGTCTTGATTCGCTTGACGCTGCTG” here?
A: -1.12 z-score

Q: With “CCGATTAACATCACAACTCCCCCTGATGTTAATCGGGTCTTGATTCGCTTGACGCTGCTG” as the sequence, how does the binding signal read?
A: 6.16 z-score

Q: “CCGATTAACATCAAAAATCCCCATGATGTTAATCGGGTCTTGATTCGCTTGACGCTGCTG” was tested. Which binding signal did it give?
A: 5.31 z-score

Q: How did the binding signal turn out when “CCGATTAACATCAAATTCCCGTATGATGTTAATCGGGTCTTGATTCGCTTGACGCTGCTG” was run?
A: 2.65 z-score
